# Data taken from the supplement of paper PMC11417369.
# ± gives the standard deviation of the averaged measurements. The list shows a part of the results.
# Test system: PfAP2-EXP AP2 domain (GST-tagged)
# Test: gcPBM binding intensity (ln(normalized median fluorescence intensity)); higher = stronger DNA binding
# Summary of the method: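 Binding of GST-tagged P. falciparum DNA-binding domains, expressed in E. coli and used at about 25 μg on average, was carried out for 1 h in 1× PBS containing 1% milk, 0.2 mg/ml BSA, 0.5% salmon testes DNA and 0.03% Triton X-100. The target was an Agilent 4 × 180k array of primer-extended double-stranded 36-bp intergenic genomic probes plus negative controls, read with Alexa488 anti-GST antibody at 488 nm. Binding intensity is the highest Masliner-normalised natural-log median intensity across replicate spots of either probe orientation.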
row,Sequence,gcPBM binding intensity (ln)
1,AAAAAAAACGGACACACACACATTCAATATAAAACA [CACACA_site4189],8.69 ± 0.65
2,TTCACATGAAGAATTAAAATAAAACTAGGAAATTAA [CACACA_negctrl_site1047],8.39 ± 0.45
3,ATCACCAAATGGGCTATACAACAATGAGAAATGGTA [CACACA_negctrl_site48],8.7 ± 0.63
4,AATAATGAATTGAAATGTACATATTTTTATTAATAC [XGTACX_site8899],8.42 ± 0.2
5,TTTTTATATTTTACATGTACATAAATATATTATATA [XGTACX_site958],8.63 ± 0.11
6,ATACGAAGAAATGTTCATTTATTTCGAACATTTAAT [CACACA_negctrl_site1481],8.29 ± 0.33
7,AATATAATATAATATAGTACGTAAAAATATTATACA [XGTACX_site2170],8.71 ± 0.35
8,TTTTTCATAAAACACACACACAAAAATAATGTGGAA [CACACA_site3687],8.7 ± 0.54
9,TTATTATTTGGTTATAGTACATAATATAATATATAT [XGTACX_site6911],8.56 ± 0.12
10,CTATATTTCGTTGGACGTACAAATGTGATAATTAGG [XGTACX_site3232],8.71 ± 0.35
11,TATATATATATGTATGCATGTTGTTTTTTATTTAAT [TGCATGCA_site343],9.95 ± 0.18
12,AGAATTCAACAATGTTGTACATACACACACACAAAA [XGTACX_site5035],8.84 ± 0.4
13,GAATTATAAGAATAAACACACAAGCTTAAAAAAAAA [CACACA_site1204],8.65 ± 0.45
14,TTTGTTTGGTTTTGGTGTACTTTTTTTTTTTTTTCT [XGTACX_site2050],8.77 ± 0.61
15,TTTCTTTTTTCACGTGCATGCCATTTAAGTATTAAT [TGCATGCA_site651],9.65 ± 0.31
16,ACTAAACTTATATGTACACACATATAACATTAATTT [CACACA_site2258],8.55 ± 0.24
17,ACATATGTATAATATGCACACGTCATTTTCCCCTTA [CACACA_site5194],8.89 ± 0.36
18,AAATTATATATGATGTGTACATAAATATATACACAT [XGTACX_site8761],8.36 ± 0.3
19,ATGTATTTATTTTAACGTACAAGATATTATTATTAT [XGTACX_site4609],8.45 ± 0.3
20,TATATTTAGAGAGAGACACACAAAGGGACTTACACA [CACACA_site2545],8.82 ± 0.47
21,TTATTATTCAAGAGGAGTACATTATGTGTATAATAT [XGTACX_site4995],8.59 ± 0.071
22,AAATTATAATATAATACACACATAAAAAAAAAAAAA [CACACA_site7],8.44 ± 0.53
23,ATATGGCATATTTGTATTATACATACATATGTATCT [TGCATGCA_negctrl_site562],8.74 ± 0.28

row,Sequence,gcPBM binding intensity (ln)
1,TTAACTTTTTTATATGCACACATAAACAAGGATATA [CACACA_site8932],8.64 ± 0.26
2,AATACAAAAAAAGGTACACACATAATATATTTATTA [CACACA_site2628],8.7 ± 0.34
3,AAAAAAAAAAAGAACACACACAGTGCACATTCGGTG [CACACA_site788],8.695 ± 0.035
4,TGTTATTCTACATATACACACAAATAACAATTTAAA [CACACA_site1824],8.48 ± 0.45
5,CTAATTGTGTATACCTGTACATATATATATATATAT [XGTACX_site416],10.2 ± 0.42
6,TTTCCCTCAAATAAAGTGCATTATGATTTTAATTTA,8.56 ± 0.057
7,ATAATTAATGATGTATGTACGGAATTTATATATTTG [XGTACX_site5685],8.4 ± 0.33
8,GTATACATATTTATAATAATAAATGTCTTATATTTT [CACACA_negctrl_site688],8.21 ± 0.35
9,ATAGTAATAGAATGATTGCACTTAAATTTTCCCTCT,8.34 ± 0.3
10,TTAAATAATTCTTTTAGTACACACGAATAAGCAGAT [XGTACX_site623],8.84 ± 0.32
11,TAATATATTAATATATGTACGTATTTTTATTAATAT [XGTACX_site5346],8.56 ± 0.35
12,TATCTTATATATAAGTGTACGCAGATTCTTACGATA [XGTACX_site6058],8.59 ± 0.24
13,ATATATATATATATATGTACATATGTCAACTGTCTA [XGTACX_site8636],10.3
14,CATACATACAAACACACACACATATATATACATACA [CACACA_site852],8.77 ± 0.36
15,ATATATCAAATAGACAAACACACAAAGGAAGAGTGA [CACACA_site3922],8.99 ± 0.46
16,TATGTATTAATGAGAACATGCAAAATAATAAACAAT [TGCATGCA_site362],9.26 ± 0.26
17,CATATACACGAACACACACACACACGCACAAAAAAA [CACACA_site6376],8.72 ± 0.44
18,CACAGACACGGACACACACACACACCCAGACACATA [CACACA_site4357],8.69 ± 0.3
19,AATAATATATGGACATGTACATAATATATATTTTTT [XGTACX_site312],8.45 ± 0.34
20,TGTTTTATTTATTAAGCACACGCGATTTAAAAAATA [CACACA_site981],8.46 ± 0.22
21,TTCATATAATTCATCTGTACATATTGATAGTATGCA [XGTACX_site6386],8.45 ± 0.35
22,TCAAATGTGTAATCTTGTACACATTAAAAGAAAAAA [XGTACX_site8822],8.44 ± 0.28
